From article PMC6346018 (Scientific Reports, 2019)

B1: arrestin-1-mCherry-Strep-tag mutant F375A, HEK293-expressed and purified (natural protein)
chain: not shown
notes: arrestin-1 (visual arrestin), bovine, […]; also called arrestin-1 F375A mutant; source: HEK293, transiently transfected (pcDNA3.1), one-step purified (Strep-Tactin); not shown: mCherry, C-terminal, kept
B2: arrestin-1-mCherry mutant F375A, bacterial lysate (natural protein)
chain: not shown
notes: arrestin-1 (visual arrestin), bovine, […]; also called single mutant F375A; not shown: mCherry, C-terminal, kept

Assays:
[1] = target: T1, light-activated and phosphorylated rhodopsin in rod outer segment membranes (P-ROS*) (UniProt P02699 1-348, phosphorylated by endogenous GRK1: mixture of species with up to seven phosphate groups per molecule, sites not stated); assay: pull-down; 1.5 µg purified arrestin-1-mCherry and 15 µg (rhod-)opsin in native ROS membranes, 50 µl, 100 mM Hepes pH 7.0, 100 mM NaCl, 1 mM DTT, 0.1 mM EDTA; P-ROS* and ROS* illuminated 2.5 min (495 nm long-pass), others kept dark; centrifuged at 4 °C, pellet washed, mCherry fluorescence; conditions: one partner purified
T1 construct: rhodopsin, endogenous in native rod outer segment (ROS) disc membranes (isolated membranes, not whole cells); also called ROS-P*; source: rod outer segment disc membranes isolated from native source; phosphorylated by endogenously available GRK1; illuminated

[2] = target: T1, light-activated and phosphorylated …; assay: pull-down; cleared bacterial lysate with arrestin-mCherry mixed with ROS-P* membranes; 10 mM Hepes pH 7.0, 1 mM DTT, 1 mM MgCl2, 0.1 mM EDTA, NaCl from 100 mM to 3.949 M; 37 °C, 5 min incubation, light activated 6 min; membranes pelleted, washed, mCherry fluorescence of the pellet; IC50 of NaCl for complex formation; conditions: partners not purified
[3] = target: T1, light-activated and phosphorylated …; assay: as above; conditions: partners not purified; remark: listed apart in the source

T1 sequence (P02699 whole entry): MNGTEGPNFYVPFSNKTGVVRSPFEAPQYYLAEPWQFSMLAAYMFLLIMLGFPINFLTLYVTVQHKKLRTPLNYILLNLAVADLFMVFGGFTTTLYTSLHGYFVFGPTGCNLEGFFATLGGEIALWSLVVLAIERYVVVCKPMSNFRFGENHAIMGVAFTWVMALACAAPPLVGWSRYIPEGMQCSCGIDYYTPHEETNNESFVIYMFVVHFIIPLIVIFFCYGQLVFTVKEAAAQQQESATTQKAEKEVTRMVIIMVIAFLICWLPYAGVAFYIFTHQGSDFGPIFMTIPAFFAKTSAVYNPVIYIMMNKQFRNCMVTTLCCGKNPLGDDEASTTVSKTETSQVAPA

| Binder | activity level relative to WT [1] [%] | IC50 of NaCl relative to WT [2] [%] | IC50 of NaCl for complex formation [3] [M] |
| --- | --- | --- | --- |
| B1 | 102 |  |  |
| B2 |  | 322 | 1.32 ± 0.31 |
